Results published in publication PMC4336329 (PLoS ONE, 2015).
Among all 310,000 compounds or so, about 2,200 (0.71%) showed an effect of 50% or more. Effects have a minus sign here. This is one part of the list.

molecular target: human ether-à-go-go-related gene (hERG) potassium channel (human, UniProt Q12809); experiment: primary screen, population patch clamp on CHO cells stably expressing hERG
Sequence (Q12809 whole entry, looked up): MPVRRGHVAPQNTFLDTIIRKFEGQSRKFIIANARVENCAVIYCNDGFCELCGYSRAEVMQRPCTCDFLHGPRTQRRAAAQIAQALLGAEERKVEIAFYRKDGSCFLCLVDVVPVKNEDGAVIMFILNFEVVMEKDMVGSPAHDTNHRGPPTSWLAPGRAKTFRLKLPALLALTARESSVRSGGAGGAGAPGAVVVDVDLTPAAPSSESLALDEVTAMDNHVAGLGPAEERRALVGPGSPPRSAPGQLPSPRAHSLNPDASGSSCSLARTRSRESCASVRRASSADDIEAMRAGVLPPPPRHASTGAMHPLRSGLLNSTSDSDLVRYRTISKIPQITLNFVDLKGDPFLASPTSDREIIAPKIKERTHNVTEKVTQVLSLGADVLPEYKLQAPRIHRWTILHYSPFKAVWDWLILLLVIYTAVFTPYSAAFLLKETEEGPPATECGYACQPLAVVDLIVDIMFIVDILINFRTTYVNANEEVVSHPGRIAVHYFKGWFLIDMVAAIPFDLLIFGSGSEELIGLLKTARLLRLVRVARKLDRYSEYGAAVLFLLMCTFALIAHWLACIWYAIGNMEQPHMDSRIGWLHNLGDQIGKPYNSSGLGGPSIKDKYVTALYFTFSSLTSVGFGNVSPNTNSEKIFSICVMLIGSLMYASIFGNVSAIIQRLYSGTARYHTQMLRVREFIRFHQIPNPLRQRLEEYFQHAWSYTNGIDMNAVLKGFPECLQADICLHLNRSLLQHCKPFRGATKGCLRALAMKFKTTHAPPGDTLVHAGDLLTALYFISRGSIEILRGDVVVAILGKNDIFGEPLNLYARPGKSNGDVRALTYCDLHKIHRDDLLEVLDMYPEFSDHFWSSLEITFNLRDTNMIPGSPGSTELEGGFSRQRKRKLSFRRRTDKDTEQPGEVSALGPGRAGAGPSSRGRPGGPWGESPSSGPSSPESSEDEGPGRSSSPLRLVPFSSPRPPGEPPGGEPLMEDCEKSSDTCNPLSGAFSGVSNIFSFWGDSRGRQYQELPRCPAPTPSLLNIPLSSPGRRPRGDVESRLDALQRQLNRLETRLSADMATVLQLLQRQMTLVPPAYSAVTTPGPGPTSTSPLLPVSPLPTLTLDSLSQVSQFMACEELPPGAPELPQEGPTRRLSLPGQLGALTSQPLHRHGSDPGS

Row | Structure (SMILES) | hERG current change (%, negative = inhibition) at 1uM
1 | O=C(Nc1ccccn1)c1ccc(Cl)c(S(=O)(=O)N2CCOCC2)c1 | 7.92%
2 | CC(CCc1ccccc1)NS(=O)(=O)c1ccccc1F (stereo not shown) | 0.0633%
3 | COc1ccc(NC(=O)CN(C)C(=O)c2ccc(NS(=O)(=O)c3cccc([N+](=O)[O-])c3)cc2)cc1 | 4.19%
4 | Cn1cccc1CC(=O)N/N=C/c1cc([N+](=O)[O-])ccc1Cl | 1.61%
5 | CCc1nc2sc(C(C)=O)c(N)c2c2c1CCCC2 | 18%
6 | O=C(Nc1n[nH]c(=S)s1)c1ccco1 | 7.25%
7 | CSc1nc(N2CCCC2)c2c(c1C#N)CC(C)(C)OC2 | 13.6%
8 | COc1ccccc1N1C(N)=NC(N)=NC1(C)C.Cl | 10.9%
9 | Cc1cc(C)c2sc(N(CCCN(C)C)C(=O)COc3ccc(Cl)cc3)nc2c1.Cl | 0.795%
10 | COCC(=O)Nc1nc(-c2ccc([N+](=O)[O-])cc2)cs1 | 19.5%
11 | O=C(Cc1ccc(Br)cc1)Nc1ccccc1Cl | 15.5%
12 | C=CCn1c(C)nc2c(cnn2-c2ccccc2)c1=O | 7.17%
13 | Cn1c(SCC(=O)N2CCc3ccccc32)nnc1-c1ccc(S(=O)(=O)N2CCCC2)cc1 | 13.4%
14 | Cc1nn(C)c(C)c1S(=O)(=O)N(CC(=O)Nc1ccc2c(c1)OCO2)c1ccc(C(C)C)cc1 | 10.3%
15 | O=[N+]([O-])/C=C1\NCCN1Cc1ccc(Cl)nc1 [22413311] | 11.7%
16 | Cc1cc(C)cc(N(CC(=O)NC2CC3CCC2C3)S(C)(=O)=O)c1 (stereo not shown) | 2.79%
17 | COc1ccc(-c2noc(CN(C)C(=O)c3ccoc3C)n2)cc1 | 11%
18 | CC1(C)Cc2c(sc3[nH]c(=S)n(Cc4ccco4)c(=O)c23)CO1 | 14.6%
19 | COc1ccc2oc(C(=O)Nc3ccc(S(=O)(=O)N(C)C4CCN(C)CC4)cc3)c(C)c2c1 | 17.8%
20 | CN(Cc1ccccc1)c1nc2nonc2nc1N1CCCC(CN2CCCC2=O)C1 (stereo not shown) | 2.4%
21 | COc1ccc(OC)c(C(=O)/C=C/c2cccnc2)c1 | 15.3%
22 | O=C(COc1ccccc1C(=O)O)Nc1nc2ccc([N+](=O)[O-])cc2s1 | 12.5%
23 | CCCCN1C2CCCC1CC(NC(=O)c1ccccc1Cl)C2 (stereo not shown) | 14.3%
24 | CCC(C(=O)OCC(=O)Nc1ccc2[nH]c(=O)[nH]c2c1)c1ccccc1 (stereo not shown) | 6.84%
25 | COc1ccc2nc(N3C(=O)CC(Cc4ccc(C)cc4)C3=O)sc2c1 (stereo not shown) | 6.83%
